Laboratory results reported in PMC6548130.
Results are given in words; binding and its absence hold for the method and conditions named. Binding seen in cells or lysates may run through a third protein. Some binding calls cover weakened binding; strength is not graded here.

Tests used:
Test in all cases: split reporter; BiFC with the two halves of Venus: pVC-SNF7 and pVN-ATGX cotransformed in yeast cells, expression induced in SD-Ura-His-Met for 1.5 h, starved in SD-N for 30 min, YFP dots seen by live-cell fluorescence microscopy; Atg17-Snf7 also tested in vps9Δ, vps21Δ, vps8Δ, pep12Δ, ypt7Δ and vps39Δ cells (dependent on the Rab5 module, not on Ypt7 or Vps39)
VN-Atg1 (yeast) = target: T1, VN-Atg1 (yeast) (UniProt P53104)
T1 sequence: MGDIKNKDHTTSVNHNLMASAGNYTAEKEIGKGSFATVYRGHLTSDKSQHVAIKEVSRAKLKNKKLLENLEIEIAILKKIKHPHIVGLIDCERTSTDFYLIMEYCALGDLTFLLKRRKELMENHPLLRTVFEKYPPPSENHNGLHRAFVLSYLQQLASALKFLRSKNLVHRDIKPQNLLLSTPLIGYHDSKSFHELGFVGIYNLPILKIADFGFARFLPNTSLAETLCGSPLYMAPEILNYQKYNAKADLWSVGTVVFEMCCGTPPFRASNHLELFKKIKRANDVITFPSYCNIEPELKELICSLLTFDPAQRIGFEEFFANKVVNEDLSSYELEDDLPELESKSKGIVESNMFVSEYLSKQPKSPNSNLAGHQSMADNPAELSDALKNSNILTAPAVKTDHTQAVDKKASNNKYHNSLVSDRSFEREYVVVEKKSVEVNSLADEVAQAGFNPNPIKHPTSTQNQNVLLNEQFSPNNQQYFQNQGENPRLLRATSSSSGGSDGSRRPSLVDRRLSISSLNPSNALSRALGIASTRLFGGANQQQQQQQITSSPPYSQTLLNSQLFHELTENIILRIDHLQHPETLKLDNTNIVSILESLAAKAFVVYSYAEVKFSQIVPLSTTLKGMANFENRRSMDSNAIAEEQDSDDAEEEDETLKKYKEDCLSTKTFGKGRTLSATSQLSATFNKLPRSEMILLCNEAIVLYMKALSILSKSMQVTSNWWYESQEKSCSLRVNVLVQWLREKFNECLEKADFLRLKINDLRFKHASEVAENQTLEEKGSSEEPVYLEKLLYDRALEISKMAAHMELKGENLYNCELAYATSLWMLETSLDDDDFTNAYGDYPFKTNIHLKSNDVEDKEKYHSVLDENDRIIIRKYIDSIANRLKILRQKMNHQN

VN-Atg31 (yeast) = target: T2, VN-Atg31 (yeast) (UniProt Q12421)
T2 sequence: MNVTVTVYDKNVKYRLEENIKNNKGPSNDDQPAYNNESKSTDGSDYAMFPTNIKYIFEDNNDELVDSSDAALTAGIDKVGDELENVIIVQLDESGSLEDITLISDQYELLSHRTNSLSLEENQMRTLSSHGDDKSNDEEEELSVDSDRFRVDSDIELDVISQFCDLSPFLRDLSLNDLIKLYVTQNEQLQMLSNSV

VN-Atg29 (yeast) = target: T3, VN-Atg29 (yeast) (UniProt Q12092)
T3 sequence: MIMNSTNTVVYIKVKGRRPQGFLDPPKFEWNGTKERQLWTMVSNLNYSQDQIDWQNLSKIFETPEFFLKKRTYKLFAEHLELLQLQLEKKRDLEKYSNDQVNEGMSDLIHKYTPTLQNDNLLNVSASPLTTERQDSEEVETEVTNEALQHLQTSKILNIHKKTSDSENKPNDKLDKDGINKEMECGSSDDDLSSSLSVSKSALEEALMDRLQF

binding (VN-Atg1 (yeast)): no binding | binding (VN-Atg31 (yeast)): no binding | binding (VN-Atg29 (yeast)): binds weakly
B1: VC-Snf7 (protein, UniProt P39929 1-240)
chain: MWSSLFGWTSSNAKNKESPTKAIVRLREHINLLSKKQSHLRTQITNQENEARIFLTKGNKVMAKNALKKKKTIEQLLSKVEGTMESMEQQLFSIESANLNLETMRAMQEGAKAMKTIHSGLDIDKVDETMDEIREQVELGDEISDAISRPLITGANEVDEDELDEELDMLAQENANQETSKIVNNNVNAAPISENKVSLPSVPSNKIKQSENSVKDGEEEEDEEDEDEKALRELQAEMGL
